In all, about 81,000 sequences were measured (“one-hybrid fitness for binding NBS DNA”: median about -0.1, highest 2% from about 0.36 on). This is one part of the list.
B1: Caulobacter ParB omega fusion; a variant is named by its letters at X, in order, B8GW30 (parent)
chain: MESVVVGEPGMSEGRRGLGRGLSALLGEVDAAPAQAPGEQLGGSREAPIEILQRNPDQPRRTFREEDLEDLSNSIREKGVLQPILVRPSPDTAGEYQIVAGERAWRAAQRAGLKTVPIMVRELDDLAVLEIGIIENVQRADLNVLEEALSYKVLMEKFERTQENIAQTIGKSXSHVANXMRLLXLPDEVQSYLVSGELTAXHARAIAAAADPVALAKQIIEGGLSVRETEALARKAPNLSAGKSKGGRPPRVKDTDTQALESDLSSVLGLDVSIDHRGSTGTLTITYATLEQLDDLCNRLTRGI

Variants of: B1
Experiment: one-hybrid fitness for binding NBS DNA (the Noc-binding site; scaled: cognate 1, non-cognate 0); higher = stronger binding
Conditions: with NBS DNA site
Summary of the method: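 On M9-minus-histidine containing 0.1 mM IPTG and 5 mM 3-AT, E. coli USO cells with a HIS3 reporter, site 19 bp from the promoter, grew 48 hours at 37°C to select Caulobacter ParB libraries randomised at four specificity codons. Plasmids from before and after were Illumina-sequenced, with three replicate libraries pooled and variants under 10 reads left out. Fitness is the log change in variant-to-wild-type read ratio, rescaled against cognate and non-cognate.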

| Variant | one-hybrid fitness for binding NBS DNA |
| --- | --- |
| GPNC | ≤ 0.2 |
| MASA | ≤ 0.2 |
| SDPI | ≤ 0.2 |
| SDPK | ≤ 0.2 |
| YQLN | ≤ 0.2 |
| GVCW | ≤ 0.2 |
| HMAV | ≤ 0.2 |
| LGPM | ≤ 0.2 |
| GRPA | ≤ 0.2 |
| PAKG | ≤ 0.2 |
| ETAK | ≤ 0.2 |
| QDWY | ≤ 0.2 |
| FIRR | ≤ 0.2 |
| IALD | ≤ 0.2 |
| CNTC | ≤ 0.2 |
| NWYR | ≤ 0.2 |
| WTPR | ≤ 0.2 |
| NKSC | ≤ 0.2 |
| HTMV | ≤ 0.2 |
| CTFR | ≤ 0.2 |
| CVCT | ≤ 0.2 |
| ELEP | ≤ 0.2 |
| RMPW | ≤ 0.2 |
| RNMW | ≤ 0.2 |
| WQNG | ≤ 0.2 |
| PVHA | ≤ 0.2 |

| Variant | one-hybrid fitness for binding NBS DNA |
| --- | --- |
| VTSA | ≤ 0.2 |
| GAVN | ≤ 0.2 |
| RKFW | ≤ 0.2 |
| LYWA | ≤ 0.2 |
| QIHS | 0.281 |
| YHSW | ≤ 0.2 |
| SPYL | ≤ 0.2 |
| WGPR | ≤ 0.2 |
| GTWR | ≤ 0.2 |
| QKQK | ≤ 0.2 |
| QRPF | ≤ 0.2 |
| SKCM | ≤ 0.2 |
| KKDG | ≤ 0.2 |
| IMFG | ≤ 0.2 |
| LANS | ≤ 0.2 |
| DDQL | ≤ 0.2 |
| TARG | ≤ 0.2 |
| TVYR | ≤ 0.2 |
| FRVA | ≤ 0.2 |
| YENS | ≤ 0.2 |
| SQDL | ≤ 0.2 |
| YTGG | ≤ 0.2 |
| VTQR | ≤ 0.2 |
| SDYQ | ≤ 0.2 |
| SPPS | ≤ 0.2 |
| SAWV | ≤ 0.2 |

| Variant | one-hybrid fitness for binding NBS DNA |
| --- | --- |
| QSVD | ≤ 0.2 |
| KDRW | ≤ 0.2 |
| ITVR | ≤ 0.2 |
| SIHC | ≤ 0.2 |
| RKYK | ≤ 0.2 |
| QQKT | 0.811 |
| EAVQ | ≤ 0.2 |
| QMPF | ≤ 0.2 |
| GNPI | ≤ 0.2 |
| TQRK | ≤ 0.2 |
| SRLI | ≤ 0.2 |
| TYPW | ≤ 0.2 |
| LQMR | ≤ 0.2 |
| GFSL | ≤ 0.2 |
| RRPM | ≤ 0.2 |
| SCKR | 0.221 |
| PDYV | ≤ 0.2 |
| PFPA | ≤ 0.2 |
| SQLK | ≤ 0.2 |
| AWDT | ≤ 0.2 |
| YRTR | ≤ 0.2 |
| EHEN | ≤ 0.2 |
| VVNI | ≤ 0.2 |
| FLEM | ≤ 0.2 |
| NYPT | ≤ 0.2 |
| TELW | ≤ 0.2 |

| Variant | one-hybrid fitness for binding NBS DNA |
| --- | --- |
| NQMN | ≤ 0.2 |
| VHHW | ≤ 0.2 |
| ANAD | ≤ 0.2 |
| PTQE | ≤ 0.2 |
| HQTS | ≤ 0.2 |
| RKPI | ≤ 0.2 |
| DAYS | ≤ 0.2 |
| SGHT | ≤ 0.2 |
| RNLD | ≤ 0.2 |
| QMDT | 0.345 |
| TSPA | ≤ 0.2 |
| PPGD | ≤ 0.2 |
| LKCD | ≤ 0.2 |
| RAFR | 0.27 |
| CQTA | ≤ 0.2 |
| FAPR | ≤ 0.2 |
| VLCA | ≤ 0.2 |
| SRGC | ≤ 0.2 |
| QQEQ | ≤ 0.2 |
| SSRT | ≤ 0.2 |
| PQSL | ≤ 0.2 |
| GDHM | ≤ 0.2 |
| PCTC | ≤ 0.2 |
| KPHD | ≤ 0.2 |
| CHAR | ≤ 0.2 |
| GKTS | ≤ 0.2 |

| Variant | one-hybrid fitness for binding NBS DNA |
| --- | --- |
| AHEN | ≤ 0.2 |
| FILG | ≤ 0.2 |
| MVNG | ≤ 0.2 |
| QTFS | 0.391 |
| LWSA | ≤ 0.2 |
| QNRW | ≤ 0.2 |
| TSAQ | ≤ 0.2 |
| PRDF | ≤ 0.2 |
| QGDA | ≤ 0.2 |
| CAAY | ≤ 0.2 |
| FQIT | ≤ 0.2 |
| LCDM | ≤ 0.2 |
| DANM | ≤ 0.2 |
| LGGC | ≤ 0.2 |
| AMTG | ≤ 0.2 |
| DVKL | ≤ 0.2 |
| FGEV | ≤ 0.2 |
| PCHW | ≤ 0.2 |
| HDPR | ≤ 0.2 |
| RGAW | ≤ 0.2 |
| DFEG | ≤ 0.2 |
| CVFL | ≤ 0.2 |
| RNLA | ≤ 0.2 |
| LMND | ≤ 0.2 |
| LITF | ≤ 0.2 |
| HIHV | ≤ 0.2 |

| Variant | one-hybrid fitness for binding NBS DNA |
| --- | --- |
| VPMY | ≤ 0.2 |
| ASRT | ≤ 0.2 |
| INLK | ≤ 0.2 |
| LSMM | ≤ 0.2 |
| QMGT | 0.447 |
| MRIS | ≤ 0.2 |
| LGNS | ≤ 0.2 |
| NQPS | ≤ 0.2 |
| LLNY | ≤ 0.2 |
| ATQI | ≤ 0.2 |
| AETV | ≤ 0.2 |
| SRIC | ≤ 0.2 |
| PRMG | ≤ 0.2 |
| ARTI | ≤ 0.2 |
| ISNC | ≤ 0.2 |
| AIWD | ≤ 0.2 |
| LYIS | ≤ 0.2 |
| FDPI | ≤ 0.2 |
| TFTR | ≤ 0.2 |
| GCVM | ≤ 0.2 |
| PRPP | ≤ 0.2 |
| RCET | ≤ 0.2 |
| QYSF | ≤ 0.2 |
